Screen size: about 3,200 compounds; about 75 (2%) showed an effect of 50% or more. Some of the results follow.

The subject of the test is T1, S. aureus MSSA476.
T1 construct: MSSA476
More on the design: species or system S. aureus MSSA476 (TSB) or V. cholerae SAD30 (LB); 384-well bacterial growth screen at 25 uM, OD600 relative to DMSO control. To be noted: relative growth, OD600, TSB; 25 µM; inhibitor.
Consider `C=CC(=O)NCc1cccc(-c2nnc[nH]2)c1` [1-I18, N-{[3-(4H-1,2,4-triazol-3-yl)phenyl]methyl}prop-2-enamide], for which the “% of control remaining” value amounted to 105.846%.
As to `C=CC(=O)N(Cc1ccc(F)cn1)c1cnn(C2CCCC2)c1C` [1-D11, N-(1-cyclopentyl-5-methyl-1H-pyrazol-4-yl)-N-[(5-fluoropyridin-2-yl)methyl]prop-2-enamide], the “% of control remaining” value is reported as 98.1099%.
Regarding `N#CC(=Cc1ccc(Cl)cc1Cl)C(=O)Nc1ccncc1` [8-M22, 2-cyano-3-(2,4-dichlorophenyl)-N-(pyridin-4-yl)prop-2-enamide], the “% of control remaining” value stood at 95.6017%.
As to `C=CC(=O)N1CCC(C(=O)NCc2cc(=O)n3ccccc3n2)CC1` [3-L12, N-({4-oxo-4H-pyrido[1,2-a]pyrimidin-2-yl}methyl)-1-(prop-2-enoyl)piperidine-4-carboxamide], the “% of control remaining” value came to 102.743%.
Take `CC(Cl)C(=O)N(C)Cc1ncnn1CC(F)F` (centres unmarked) [7-C10, 2-chloro-N-{[1-(2,2-difluoroethyl)-1H-1,2,4-triazol-5-yl]methyl}-N-methylpropanamide]: the “% of control remaining” value amounted to 104.239%.
Under `CC(C)NC(=O)C(C#N)=Cc1cccs1` [8-H15, 2-cyano-N-(propan-2-yl)-3-(thiophen-2-yl)prop-2-enamide] stands 112.531%; under `O=C(CCl)N[C@H]1CCN(S(=O)(=O)c2ccccc2)C1` [7-P16, N-[(3S)-1-(benzenesulfonyl)pyrrolidin-3-yl]-2-chloroacetamide], 101.413%.
Under `N#CC(=Cc1cccnc1)C(=O)Nc1ccc(F)cc1` [8-B21, 2-cyano-N-(4-fluorophenyl)-3-(pyridin-3-yl)prop-2-enamide] stands 109.876%; under `N#CC(=Cc1ccccc1Cl)C(=O)Nc1ccc2c(c1)OCCO2` [8-F03, 3-(2-chlorophenyl)-2-cyano-N-(2,3-dihydro-1,4-benzodioxin-6-yl)prop-2-enamide], 109.876%.
As for `Cc1ccccc1NC(=O)C(C#N)=Cc1ccsc1` [8-K15, 2-cyano-N-(2-methylphenyl)-3-(thiophen-3-yl)prop-2-enamide], the figure is 116.846%; as for `Cc1ccccc1CN1CCC(NC(=O)CCl)CC1.Cl` [6-L08, 2-chloro-N-{1-[(2-methylphenyl)methyl]piperidin-4-yl}acetamide hydrochloride], 130.78%; as for `O=C(CCl)N1CCn2c(cc3ccccc32)C1` [5-A20, 2-chloro-1-{1H,2H,3H,4H-pyrazino[1,2-a]indol-2-yl}ethan-1-one], 152.641%.
As to `CC(NC(=O)C(C#N)=Cc1cc(O)ccc1[N+](=O)[O-])c1ccccc1` (centres unmarked) [9-D15, 2-cyano-3-(5-hydroxy-2-nitrophenyl)-N-(1-phenylethyl)prop-2-enamide], the “% of control remaining” value was determined as 90.4869%.
`Cc1ccc(C2=NN(C(=O)CCl)C(c3cccs3)C2)o1` (centres unmarked) [5-I17, 2-chloro-1-[3-(5-methylfuran-2-yl)-5-(thiophen-2-yl)-4,5-dihydro-1H-pyrazol-1-yl]ethan-1-one]: the “% of control remaining” value came out at 104.189%.
As for `Cc1cc(C(=O)CCl)c(C)n1CCc1ccccc1` [10-B18, 2-chloro-1-[2,5-dimethyl-1-(2-phenylethyl)-1H-pyrrol-3-yl]ethan-1-one], the figure is 102.188%.
As for `CCOc1ccc(C(=O)C(C)Cl)cc1` (centres unmarked) [10-G06, 2-chloro-1-(4-ethoxyphenyl)propan-1-one], the figure is 80.3125%; as for `C=CC(=O)N[C@H]1CCCC[C@H]1c1ccnn1C` (racemic) [2-G18, rac-N-[(1R,2S)-2-(1-methyl-1H-pyrazol-5-yl)cyclohexyl]prop-2-enamide], 119.408%.
For `Cc1ccc(C2OCCCC2CNC(=O)C(C)Cl)cc1` (centres unmarked) [7-B09, 2-chloro-N-{[2-(4-methylphenyl)oxan-3-yl]methyl}propanamide], the “% of control remaining” value is reported as 87.2841%.
With `O=C(CCl)N(Cc1ccoc1)C1CCCCC1` [5-B15, 2-chloro-N-cyclohexyl-N-[(furan-3-yl)methyl]acetamide], the “% of control remaining” value was 80.1457%.
On to `Cl.O=C(CCl)NC1CCN(Cc2cscn2)CC1` [7-H04, 2-chloro-N-{1-[(1,3-thiazol-4-yl)methyl]piperidin-4-yl}acetamide hydrochloride], for which the “% of control remaining” value is on record as 88.2261%.
On to `N#CC(=Cc1cccc(Cl)c1Cl)C(=O)Nc1ccc(F)cc1` [8-P22, 2-cyano-3-(2,3-dichlorophenyl)-N-(4-fluorophenyl)prop-2-enamide], for which the “% of control remaining” value is given as 70.7054%.
`CC(Cl)C(=O)NCc1csc2ccccc12` (centres unmarked) [7-C11, N-[(1-benzothiophen-3-yl)methyl]-2-chloropropanamide]: the “% of control remaining” value turned out to be 75.0392%.
Under `CC1CSc2ccccc2N(C(=O)CCl)C1` (centres unmarked) [5-H07, 2-chloro-1-(3-methyl-2,3,4,5-tetrahydro-1,5-benzothiazepin-5-yl)ethan-1-one] stands 104.554%.
As for `CC(Cl)C(=O)NC1CCCn2nccc21` (centres unmarked) [6-J16, 2-chloro-N-{4H,5H,6H,7H-pyrazolo[1,5-a]pyridin-4-yl}propanamide], the figure is 93.561%.
As to `C=CCNC(=O)C(C#N)=Cc1ccc(C(=O)O)cc1` [8-J04, 4-{2-cyano-2-[(prop-2-en-1-yl)carbamoyl]eth-1-en-1-yl}benzoic acid], the “% of control remaining” value came out at 118.174%.
For `C=CC(=O)N(C)Cc1nc2c(n1C)CCCC2` [2-K22, N-methyl-N-[(1-methyl-4,5,6,7-tetrahydro-1H-1,3-benzodiazol-2-yl)methyl]prop-2-enamide], the “% of control remaining” value was 103.394%.
As for `CC(Cl)C(=O)N1CCNC(=O)C1c1c(F)cccc1Cl` (centres unmarked) [6-D07, 3-(2-chloro-6-fluorophenyl)-4-(2-chloropropanoyl)piperazin-2-one], the figure is 71.0244%; as for `C=CC(=O)Nc1ccnn1C1CCCC1` [2-K13, N-(1-cyclopentyl-1H-pyrazol-5-yl)prop-2-enamide], 103.394%; as for `CC(=O)N(C)Cc1ccc(C(=O)CCl)cc1` [10-H04, N-{[4-(2-chloroacetyl)phenyl]methyl}-N-methylacetamide], 111.875%.
As for `C=CC(=O)Nc1ccc(-c2nnnn2C)cc1` [2-F18, N-[4-(1-methyl-1H-1,2,3,4-tetrazol-5-yl)phenyl]prop-2-enamide], the figure is 115.927%.
In the case of `C=CC(=O)N[C@H]1CCO[C@@H]1c1ccnn1C(C)C` (racemic) [3-K05, rac-N-[(2R,3R)-2-[1-(propan-2-yl)-1H-pyrazol-5-yl]oxolan-3-yl]prop-2-enamide], the “% of control remaining” value was 84.9804%.
As for `CC(Cl)C(=O)NC1CC(C)N(c2ccccc2)C1` (centres unmarked) [6-L15, 2-chloro-N-(5-methyl-1-phenylpyrrolidin-3-yl)propanamide], the figure is 113.707%; as for `O=C(CCl)N1CCOCC1c1noc(-c2ccccc2)n1` (centres unmarked) [5-E10, 2-chloro-1-[3-(5-phenyl-1,2,4-oxadiazol-3-yl)morpholin-4-yl]ethan-1-one], 111.111%; as for `CC1CCN(Cc2csc(NC(=O)CCl)n2)CC1.Cl` [6-E17, 2-chloro-N-{4-[(4-methylpiperidin-1-yl)methyl]-1,3-thiazol-2-yl}acetamide hydrochloride], 110.293%.
Regarding `C=CC(=O)NCC(C)(C)Cn1cccn1` [1-J04, N-[2,2-dimethyl-3-(1H-pyrazol-1-yl)propyl]prop-2-enamide], the “% of control remaining” value was 107.956%.
As for `Cn1c(CNC=C(C#N)C(=O)Nc2ccccc2)cc(=O)n(C)c1=O` [9-G21, 2-cyano-3-{[(1,3-dimethyl-2,6-dioxo-1,2,3,6-tetrahydropyrimidin-4-yl)methyl]amino}-N-phenylprop-2-enamide], the “% of control remaining” value stood at 102.172%.
Under `C=CC(=O)NC12CC3(C)CC(C)(CC(O)(C3)C1)C2` [1-K17, N-(3-hydroxy-5,7-dimethyladamantan-1-yl)prop-2-enamide] stands 111.473%; under `CC(Cl)C(=O)NCCn1cccc1` (centres unmarked) [7-G21, 2-chloro-N-[2-(1H-pyrrol-1-yl)ethyl]propanamide], 86.3422%; under `C=CC(=O)NCc1ccc(-c2noc(C)n2)cc1` [3-P22, N-{[4-(5-methyl-1,2,4-oxadiazol-3-yl)phenyl]methyl}prop-2-enamide], 113.191%.
Under `C=CC(=O)N1CCCn2nc(CO)cc2C1` [3-M10, 1-[2-(hydroxymethyl)-4H,5H,6H,7H,8H-pyrazolo[1,5-a][1,4]diazepin-5-yl]prop-2-en-1-one] stands 111.101%; under `CSc1ccc(C=C(C#N)C(=O)N2CCCC2)cc1` [8-I11, 3-[4-(methylsulfanyl)phenyl]-2-(pyrrolidine-1-carbonyl)prop-2-enenitrile], 119.17%.
On to `Cc1noc(C)c1COC1CCN(C(=O)C(C)Cl)C1` (centres unmarked) [7-O14, 2-chloro-1-{3-[(3,5-dimethyl-1,2-oxazol-4-yl)methoxy]pyrrolidin-1-yl}propan-1-one], for which the “% of control remaining” value stood at 124.019%.
Under `Cl.O=C(CCl)N1CCN(CC=Cc2ccccc2)CC1` [4-F16, 2-chloro-1-[4-(3-phenylprop-2-en-1-yl)piperazin-1-yl]ethan-1-one hydrochloride] stands 103.668%; under `N#CC(=Cc1ccco1)C(=O)Nc1cccc(Cn2cccn2)c1` [8-I20, 2-cyano-3-(furan-2-yl)-N-{3-[(1H-pyrazol-1-yl)methyl]phenyl}prop-2-enamide], 69.7095%.

These data come from PMC11995724, “Antibiotic target discovery by integrated phenotypic and activity-based profiling of electrophilic fragments” (Cell chemical biology, 2025).
